In PubChem BioAssay (NCATS):
The inconclusive results got no clear call from the source; some entries with a clear call stand among them for comparison. No potency is given beside an inconclusive call; the fits are too rough. Activity calls are given as the source filed them. The call rests on the fitted dose curve; in most records, active means well fitted inhibition curve with a large enough effect; inconclusive means small, poorly fitted or top-dose-only effect; inactive means no such curve, though single readings can be large or run the other way.

How the values were obtained:
[1] = qHTS Screen of the MIPE 4.0 Collection Against Ewings Sarcoma (RDES) (AID 1259252); further: nearly all actives have a fitted effect of over 35% in size
Summary of the method: (§1)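 Here, cells in 5% FBS RPMI were exposed for two days (48 h) to compound dilutions added four hours after plating. ATP-based CellTiter-Glo luminescence measured viability, normalized to vehicle and no-cell blanks.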

[2] = qHTS Screen of the MIPE 4.0 Collection Against Ewings Sarcoma (TC71) (AID 1259253); further: nearly all actives have a fitted effect of over 40% in size
Summary of the method: as §1

[3] = qHTS Screen of the MIPE 4.0 Collection Against Ewings Sarcoma (EW8) (AID 1259255); further: nearly all actives have a fitted effect of over 35% in size
Summary of the method: as §1

[4] = qHTS Screen of the MIPE 4.0 Collection Against Ewings Sarcoma (TC32) (AID 1259256); further: nearly all actives have a fitted effect of over 45% in size
Summary of the method: as §1
Potency means the concentration at half of the fitted maximal effect; tags describe the fitted curve by direction and shape.

SMILES: Nc1ncnc2ccccc12
- Potency [1]: inconclusive [inhibitor, single point]
- Potency [2]: inconclusive [inhibitor, single point]
- Potency [3]: inactive

SMILES: CCC(=O)O[C@]1(C(=O)CO)CC[C@H]2[C@@H]3CCC4=CC(=O)CC[C@]4(C)[C@@H]3CC[C@@]21C
- Potency [1]: inconclusive [inhibitor, single point]
- Potency [2]: inconclusive [inhibitor, single point]

SMILES: CC1CCC(C(=O)N(c2cc(C#CC(C)(C)C)sc2C(=O)O)C2CCC(O)CC2)CC1 (configuration not stated)
- Potency [1]: inconclusive [inhibitor, partial curve, poor fit]
- Potency [2]: active: 26.4 µM
- Potency [3]: inconclusive [inhibitor, single point]

SMILES: CC1CC2C3CCC4=CC(=O)C=C[C@]4(C)[C@@]3(F)[C@@H](O)C[C@]2(C)[C@@]1(O)C(=O)CO (some centres not stated)
- Potency [1]: inactive
- Potency [2]: inactive
- Potency [3]: inactive

SMILES: CN(C)CC[C@H](CSc1ccccc1)Nc1ccc(S(=O)(=O)NC(=O)c2ccc(N3CCN(Cc4ccccc4-c4ccc(Cl)cc4)CC3)cc2)cc1[N+](=O)[O-]
- Potency [1]: inconclusive [inhibitor, partial curve, poor fit]
- Potency [2]: active: 16.6 µM

SMILES: NC(=O)c1ncn([C@@H]2O[C@H](CO)[C@@H](O)[C@@H]2O)c1O
- Potency [1]: inactive
- Potency [2]: inactive

SMILES: C=C1C(=O)OC2C=C(C)CCC=C(C)CCC12 (configuration not stated)
- Potency [1]: inconclusive [inhibitor, single point]
- Potency [2]: inconclusive [inhibitor, partial curve]

SMILES: CN[C@@H]1[C@@H](O)[C@@H](O[C@@H]2[C@@H](O)[C@H](O[C@H]3O[C@H](CN)[C@@H](O)[C@H](O)[C@@H]3O)[C@@H](N)C[C@@H]2NC(=O)[C@@H](O)CN)OC[C@]1(C)O
- Potency [1]: inconclusive [inhibitor, partial curve, poor fit]
- Potency [2]: inactive
- Potency [3]: inactive

SMILES: O=C(O)CSCC(=O)NC1CCSC1=O (configuration not stated)
- Potency [1]: inactive
- Potency [2]: inactive

SMILES: Cc1c(C)n(Cc2ccc(-c3ccccc3C(=O)O)cc2)c2ccc(C(=O)N[C@@H](C)c3ccc([N+](=O)[O-])cc3)cc12
- Potency [1]: inactive
- Potency [2]: inactive

SMILES: O=c1cc(-c2ccc(O)c(O)c2)oc2cc(O)cc(O)c12
- Potency [1]: inconclusive [inhibitor, single point]
- Potency [2]: inactive

SMILES: C=CC[N+]1([C@H]2C[C@H]3[C@@H]4CC[C@H]5C[C@H](O)[C@@H](N6CCOCC6)C[C@]5(C)[C@@H]4CC[C@]3(C)[C@H]2OC(C)=O)CCCC1
- Potency [1]: inactive
- Potency [2]: inconclusive [inhibitor, partial curve, poor fit]

SMILES: N[C@H]1CN(c2c(F)cc3c(=O)c(C(=O)O)cn(C4C[C@@H]4F)c3c2Cl)CC12CC2 (some centres not stated)
- Potency [1]: inactive
- Potency [2]: inactive

SMILES: CC=CC(=O)N(CC)c1ccccc1C
- Potency [1]: inconclusive [inhibitor, partial curve, poor fit]
- Potency [2]: inconclusive [inhibitor, single point]
- Potency [3]: inactive
- Potency [4]: inconclusive [inhibitor, single point]

SMILES: CC[C@@H]1C=C(C)C[C@H](C)C[C@H](OC)[C@H]2O[C@@](O)(C(=O)C(=O)N3CCCC[C@@H]3C(=O)O[C@H](C(C)=C[C@@H]3CC[C@H](Cl)[C@H](OC)C3)[C@H](C)[C@@H](O)CC1=O)[C@H](C)C[C@H]2OC
- Potency [1]: inconclusive [inhibitor, single point]
- Potency [2]: inconclusive [inhibitor, partial curve]
- Potency [3]: inconclusive [inhibitor, partial curve]
- Potency [4]: inconclusive [inhibitor, full curve, poor fit]

SMILES: CC(=O)O[C@]1(C(C)=O)CC[C@@H]2[C@@H]3C[C@H](C)C4=CC(=O)CC[C@]4(C)[C@H]3CC[C@@]21C
- Potency [1]: inconclusive [inhibitor, single point]
- Potency [2]: inconclusive [inhibitor, single point]
- Potency [3]: inconclusive [inhibitor, single point]
- Potency [4]: inconclusive [inhibitor, single point]

SMILES: CC(C)n1nc(-c2ccc3oc(N)nc3c2)c2c(N)ncnc21
- Potency [1]: inconclusive [inhibitor, full curve]
- Potency [2]: inconclusive [inhibitor, full curve]
- Potency [3]: inconclusive [inhibitor, full curve]
- Potency [4]: inconclusive [inhibitor, full curve]

SMILES: Cc1ccc([C@@H]2O[C@H](CO)[C@@H](O)[C@H](O)[C@@H]2O)cc1Cc1ccc(-c2ccc(F)cc2)s1
- Potency [1]: inconclusive [inhibitor, single point]
- Potency [2]: inconclusive [inhibitor, partial curve]
- Potency [3]: inconclusive [inhibitor, partial curve]
- Potency [4]: inconclusive [inhibitor, single point]

SMILES: O=C(O)C1=CC(O)C(O)[C@H](O)C1 (some centres not stated)
- Potency [1]: inactive
- Potency [2]: inactive
- Potency [3]: inactive
- Potency [4]: inactive

SMILES: O=c1[nH]cnc2c1ncn2[C@H]1CC[C@@H](CO)O1
- Potency [1]: inconclusive [inhibitor, single point]
- Potency [2]: inconclusive [inhibitor, single point]
- Potency [3]: inconclusive [inhibitor, single point]
- Potency [4]: inconclusive [inhibitor, single point]

SMILES: C[C@@]1(c2cc(-c3cncnc3)c(F)cc2F)CCSC(N)=N1
- Potency [1]: inactive
- Potency [2]: inactive
- Potency [3]: inconclusive [inhibitor, single point]
- Potency [4]: inactive

SMILES: OC[C@H]1O[C@@H](Oc2cc(O)cc(C=Cc3ccc(O)cc3)c2)[C@H](O)[C@@H](O)[C@H]1O
- Potency [1]: inconclusive [inhibitor, single point]
- Potency [2]: inconclusive [inhibitor, single point]
- Potency [3]: inconclusive [inhibitor, single point]
- Potency [4]: inconclusive [inhibitor, single point]

SMILES: O=C1NC(=O)C(=Cc2ccc3c(c2)OC(F)(F)O3)S1
- Potency [1]: inconclusive [inhibitor, single point]
- Potency [2]: inconclusive [inhibitor, single point]
- Potency [3]: inconclusive [inhibitor, single point]
- Potency [4]: inconclusive [inhibitor, single point]

SMILES: Cn1c(N2CCCCS2(=O)=O)nc(C(=O)NCc2ccc(F)cc2)c(O)c1=O
- Potency [1]: inconclusive [inhibitor, single point]
- Potency [2]: inconclusive [inhibitor, single point]
- Potency [3]: inconclusive [inhibitor, single point]
- Potency [4]: active: 23.5 µM

SMILES: CC(C)(C)[N+]([O-])=Cc1ccc(S(=O)(=O)O)cc1S(=O)(=O)O
- Potency [1]: inactive
- Potency [2]: inactive
- Potency [3]: inactive

SMILES: N#C[C@H]1C[C@H]2C[C@@H]2N1C(=O)[C@@H](N)C12CC3CC(CC(O)(C3)C1)C2
- Potency [1]: inconclusive [inhibitor, single point]
- Potency [2]: inconclusive [inhibitor, partial curve, poor fit]
- Potency [3]: inconclusive [inhibitor, partial curve, poor fit]

SMILES: N=C(N=C(N)N)N1CCOCC1
- Potency [1]: inconclusive [inhibitor, single point]
- Potency [2]: inconclusive [inhibitor, single point]
- Potency [3]: inconclusive [inhibitor, single point]
- Potency [4]: inconclusive [inhibitor, single point]

SMILES: Cc1nc2c([nH]1)CCN(C(=O)c1ccc(NC(=O)c3ccccc3-c3ccccc3)cc1)c1ccccc1-2
- Potency [1]: inactive
- Potency [2]: inconclusive [inhibitor, single point]
- Potency [3]: inconclusive [inhibitor, single point]
- Potency [4]: inactive

SMILES: C[C@]12CC[C@@H]3c4ccc(O)cc4CC[C@H]3[C@H]1C[C@@H](O)[C@H]2O
- Potency [1]: inconclusive [inhibitor, single point]
- Potency [2]: inconclusive [inhibitor, single point]
- Potency [3]: inconclusive [inhibitor, single point]

SMILES: CN1N=C(N)c2cn([C@@H]3O[C@H](COP(=O)(O)O)[C@@H](O)[C@@H]3O)c3ncnc1c23
- Potency [1]: inconclusive [inhibitor, partial curve]
- Potency [2]: active: 7.43 µM
- Potency [3]: active: 13.2 µM

SMILES: Nc1nnc(-c2cccc(Cl)c2Cl)c(N)n1
- Potency [1]: inconclusive [inhibitor, single point]
- Potency [2]: inconclusive [inhibitor, single point]
- Potency [3]: inconclusive [inhibitor, single point]
- Potency [4]: inconclusive [inhibitor, single point]

SMILES: CN(C)CCC=C1c2ccccc2COc2ccc(CC(=O)O)cc21
- Potency [1]: inconclusive [inhibitor, partial curve]
- Potency [2]: inconclusive [inhibitor, single point]
- Potency [3]: inactive
- Potency [4]: inconclusive [inhibitor, single point]
